In the supplement of paper PMC8728848:
The list shows a part of the results.

Columns and labels:
Assay in all cases: glycan array binding signal (z-score within array); higher = stronger binding
Details in all cases: glycan notation: IUPAC condensed, linker removed
[1] = molecular target: Neu5Ac(a2-3)Gal(b1-4)GlcNAc(b1-2)Man(a1-3)[Neu5Ac(a2-6)Gal(b1-4)GlcNAc(b1-2)Man(a1-6)]Man(b1-4)GlcNAc(b1-4)GlcNAc
In short: (§1)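 Glycan array data came from 3228 arrays in the Consortium for Functional Glycomics database, and only arrays with an available protein sequence were kept. Glycan names were put into IUPAC-condensed notation, and columns mapping to the same glycan were averaged. The binding signal is a within-array Z-score, averaged across arrays of one protein sequence run at different concentrations or buffers and across linkers. A negative Z-score can be read as non-binding.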

[2] = molecular target: Neu5Ac(a2-3)Gal(b1-4)GlcNAc(b1-2)[Neu5Ac(a2-3)Gal(b1-4)GlcNAc(b1-4)]Man(a1-3)[GlcNAc(b1-4)][Neu5Ac(a2-3)Gal(b1-4)GlcNAc(b1-2)[Neu5Ac(a2-3)Gal(b1-4)GlcNAc(b1-6)]Man(a1-6)]Man(b1-4)GlcNAc(b1-4)GlcNAc
In short: as §1

[3] = molecular target: Neu5Ac(a2-3)Gal(b1-4)GlcNAc(b1-2)[Neu5Ac(a2-3)Gal(b1-4)GlcNAc(b1-4)]Man(a1-3)[GlcNAc(b1-4)][Neu5Ac(a2-3)Gal(b1-4)GlcNAc(b1-4)Man(a1-6)]Man(b1-4)GlcNAc(b1-4)GlcNAc
In short: as §1

[4] = molecular target: Neu5Ac(a2-3)Gal(b1-4)GlcNAc(b1-2)[Neu5Ac(a2-3)Gal(b1-4)GlcNAc(b1-6)]Man(a1-6)[Neu5Ac(a2-3)Gal(b1-4)GlcNAc(b1-2)Man(a1-3)][GlcNAc(b1-4)]Man(b1-4)GlcNAc(b1-4)GlcNAc
In short: as §1

[5] = molecular target: Neu5Ac(a2-3)Gal(b1-4)GlcNAc(b1-3)Gal
In short: as §1

[6] = molecular target: Neu5Ac(a2-3)Gal(b1-4)GlcNAc(b1-3)Gal(b1-3)GlcNAc
In short: as §1

[7] = molecular target: Neu5Ac(a2-3)Gal(b1-4)GlcNAc(b1-3)Gal(b1-4)GlcNAc
In short: as §1

[8] = molecular target: Neu5Ac(a2-3)Gal(b1-4)GlcNAc(b1-3)Gal(b1-4)GlcNAc(b1-2)Man(a1-3)[Neu5Ac(a2-3)Gal(b1-4)GlcNAc(b1-3)Gal(b1-4)GlcNAc(b1-2)Man(a1-6)]Man(b1-4)GlcNAc(b1-4)GlcNAc
In short: as §1

[9] = molecular target: Neu5Ac(a2-3)Gal(b1-4)GlcNAc(b1-3)Gal(b1-4)GlcNAc(b1-3)Gal(b1-4)GlcNAc
In short: as §1

[10] = molecular target: Neu5Ac(a2-3)Gal(b1-4)GlcNAc(b1-3)Gal(b1-4)GlcNAc(b1-3)Gal(b1-4)GlcNAc(b1-2)Man(a1-3)[Neu5Ac(a2-3)Gal(b1-4)GlcNAc(b1-3)Gal(b1-4)GlcNAc(b1-3)Gal(b1-4)GlcNAc(b1-2)Man(a1-6)]GalNAc
In short: as §1

[11] = molecular target: Neu5Ac(a2-3)Gal(b1-4)GlcNAc(b1-3)Gal(b1-4)GlcNAc(b1-3)GalNAc
In short: as §1

[12] = molecular target: Neu5Ac(a2-3)Gal(b1-4)GlcNAc(b1-3)Gal(b1-4)GlcNAc(b1-3)[Neu5Ac(a2-3)Gal(b1-4)GlcNAc(b1-3)Gal(b1-4)GlcNAc(b1-6)]GalNAc
In short: as §1

[13] = molecular target: Neu5Ac(a2-3)Gal(b1-4)GlcNAc(b1-3)Gal(b1-4)GlcNAc(b1-6)[Gal(b1-3)]GalNAc
In short: as §1

[14] = molecular target: Neu5Ac(a2-3)Gal(b1-4)GlcNAc(b1-3)Gal(b1-4)[Fuc(a1-3)]GlcNAc
In short: as §1

[15] = molecular target: Neu5Ac(a2-3)Gal(b1-4)GlcNAc(b1-3)GalNAc
In short: as §1

[16] = molecular target: Neu5Ac(a2-3)Gal(b1-4)GlcNAc(b1-3)[Neu5Ac(a2-3)Gal(b1-4)GlcNAc(b1-6)]GalNAc
In short: as §1

[17] = molecular target: Neu5Ac(a2-3)Gal(b1-4)GlcNAc(b1-6)GalNAc
In short: as §1

[18] = molecular target: Neu5Ac(a2-3)Gal(b1-4)GlcNAc(b1-6)[Gal(b1-3)]GalNAc
In short: as §1

[19] = molecular target: Neu5Ac(a2-3)Gal(b1-4)GlcNAc(b1-6)[Neu5Ac(a2-3)Gal(b1-3)]GalNAc
In short: as §1

[20] = molecular target: Neu5Ac(a2-3)Gal(b1-4)GlcNAc6S
In short: as §1

[21] = molecular target: Neu5Ac(a2-3)Gal(b1-4)[Fuc(a1-3)]GlcNAc
In short: as §1

[22] = molecular target: Neu5Ac(a2-3)Gal(b1-4)[Fuc(a1-3)]GlcNAc(b1-2)Man
In short: as §1

[23] = molecular target: Neu5Ac(a2-3)Gal(b1-4)[Fuc(a1-3)]GlcNAc(b1-3)Gal
In short: as §1

[24] = molecular target: Neu5Ac(a2-3)Gal(b1-4)[Fuc(a1-3)]GlcNAc(b1-3)Gal(b1-4)GlcNAc
In short: as §1

[25] = molecular target: Neu5Ac(a2-3)Gal(b1-4)[Fuc(a1-3)]GlcNAc(b1-3)Gal(b1-4)[Fuc(a1-3)]GlcNAc(b1-3)Gal(b1-4)[Fuc(a1-3)]GlcNAc
In short: as §1

[26] = molecular target: Neu5Ac(a2-3)Gal(b1-4)[Fuc(a1-3)]GlcNAc(b1-3)GalNAc
In short: as §1

[27] = molecular target: Neu5Ac(a2-3)Gal(b1-4)[Fuc(a1-3)]GlcNAc(b1-6)[Gal(b1-3)]GalNAc
In short: as §1

[28] = molecular target: Neu5Ac(a2-3)Gal(b1-4)[Fuc(a1-3)]GlcNAc(b1-6)[Neu5Ac(a2-3)Gal(b1-3)]GalNAc
In short: as §1

[29] = molecular target: Neu5Ac(a2-3)Gal(b1-4)[Fuc(a1-3)]GlcNAc6S
In short: as §1

[30] = molecular target: Neu5Ac(a2-3)Gal6S(b1-4)GlcNAc
In short: as §1

B1: Epa1-NP (Candida glabrata), Q6VBJ0 (protein)
chain: MILNPALFLNKCVCIYTTLILLLLTNGGYATSSNDISLASKDPTTFPLGCSPDITTPKKGLSMELYSYDFRKKGSYPCWDAAYLDPNYPRTGYKSHRLLAKVDGVTGNINFYYHATKGCTPQLGHLPASYNYPKPLTMTNFTMLLYGYFRPKVTGFHTFTISADDLLFVNFGAGNAFDCCRRDSSADHFGNYQAYAIWGSKTAKDELTVHLDAGVYYPIRLFYNNREYDGALSFTFKTESNENTVSDFSEYFFSLDDTEEGCPGLISYDSSCASVKTSKIIGIDYHTETPNENLVPITKTIYHLGIPCTGTTTTPLCGSGFYDPLANKCVTINTSSTSSVTKTTSHTTSKEVSFHSSISSQKTLIPKSIPSPYGPIKSQSIPTEMETSSEISSSEYAFSDVISTPSHSPYTKKHSSLNSSSYTSTVIHSLTSYSISQGIFSTSLSEQNITSKSSTDKFSTATSMSNNITQSSIIISQFSTNNENYTTTSMHTSSDKISTETLNNSISTTTSILFSNSSTILKNNTTIISSDKDTHYHPVNPTIVCSTNKTEIICASITQPSISNSNNHWSSSVLKFNSTTVRSTLPSSAGSNETSINVPFSSSTESNTSTSSTSTSNSKMVRSTLPSSAGSNETSISVPFSSSTESNTSTSSTSTSNSKMVRSTLPSSAGSNETSINVPFSSSTESNTSTSSTSTSNSKTVRSTPFSSAGIIMTSLSQRNNKSASSYASSNSKCYNTADSCRKVHSTPSYLLTSSYTSEGVDYDCSLVSTKLKINDTNCVNNKHTTKSCLKTSVTTTIPTLEIKTARKSSSNTIGLHSYPTSSPNKSISSAPIIGYISSFKTIKTASPSYQTSDLTTITTITSLNNPGSTAVENTHESNDKSRKTSSNDISSKHSVIKETKDAVESSNKSHQTNTLKCSSIIIASSSHNSYESLGGTTLTLTLSKVYSPQNNDTLPFLEISEVNPSRTVLPESSKMMQYLTSTEERNKTARNTIATNIVSISTFHFEGEGNAIRMGYTQLLLMLIGIIVMNIGT
[1]
  glycan array binding signal (z-score): -0.299
[2]
  glycan array binding signal (z-score): -0.294
[3]
  glycan array binding signal (z-score): -0.295
[4]
  glycan array binding signal (z-score): -0.281
[5]
  glycan array binding signal (z-score): -0.263
[6]
  glycan array binding signal (z-score): -0.318
[7]
  glycan array binding signal (z-score): -0.313
[8]
  glycan array binding signal (z-score): -0.207
[9]
  glycan array binding signal (z-score): -0.422
[10]
  glycan array binding signal (z-score): -0.272
[11]
  glycan array binding signal (z-score): -0.291
[12]
  glycan array binding signal (z-score): -0.083
[13]
  glycan array binding signal (z-score): 0.646
[14]
  glycan array binding signal (z-score): -0.418
[15]
  glycan array binding signal (z-score): -0.306
[16]
  glycan array binding signal (z-score): -0.286
[17]
  glycan array binding signal (z-score): -0.288
[18]
  glycan array binding signal (z-score): 1.85
[19]
  glycan array binding signal (z-score): -0.253
[20]
  glycan array binding signal (z-score): -0.327
[21]
  glycan array binding signal (z-score): -0.326
[22]
  glycan array binding signal (z-score): -0.289
[23]
  glycan array binding signal (z-score): -0.324
[24]
  glycan array binding signal (z-score): -0.211
[25]
  glycan array binding signal (z-score): -0.334
[26]
  glycan array binding signal (z-score): 0.089
[27]
  glycan array binding signal (z-score): 0.111
[28]
  glycan array binding signal (z-score): -0.253
[29]
  glycan array binding signal (z-score): -0.331
[30]
  glycan array binding signal (z-score): -0.318
